Results as given in the supplement of paper PMC11417369.
± gives the standard deviation of the averaged measurements. Some of the results follow.

tested on: PfAP2-LT AP2 domain (GST-tagged); assay: gcPBM binding intensity (ln(normalized median fluorescence intensity)); higher = stronger DNA binding
Summary of the method: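 In this array assay, P. falciparum DNA-binding domains with a GST tag, expressed in E. coli, were applied for 1 h to primer-extended double-stranded 36-bp intergenic genomic probes and negative controls on an Agilent 4 × 180k array. Bound protein was visualised with Alexa488 anti-GST antibody at 488 nm. Binding intensity is the highest Masliner-normalised natural-log median intensity across replicate spots of either probe orientation.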

| Sequence | gcPBM binding intensity (ln) |
| --- | --- |
| AAAAAAAAAAAAAATACACACGTGAATGTATTGTTT [CACACA_site4856] | 8.97 ± 0.41 |
| TCTATTAACTGATGTGCATGTTATAACCTAGAAGTA [TGCATGCA_site359] | 8.63 ± 0.45 |
| AGTTCGAATATATAAAGTACATAATTATATATTTGC [XGTACX_site2604] | 8.81 ± 0.43 |
| TAATATCATTTAGACACACACTCTTACAATATGTAA [CACACA_site5434] | 8.95 ± 0.4 |
| TTACACATATTATATATATATAAAAAAAAAAAATAT [CACACA_negctrl_site1684] | 8.72 ± 0.46 |
| AAAAATCGATACAAGCGTACAAAATAAAATAAAAAT [XGTACX_site5546] | 9.14 ± 0.42 |
| ACCAATAATATACATACACACATAAAGGTTTATATA [CACACA_site315] | 9.06 ± 0.42 |
| TCTTATCCTACTTTTATTTTTACTTTTTTTTCTTAT [CACACA_negctrl_site111] | 8.9 ± 0.59 |
| TATATATATATATGTATATATGTATATCTATATTTA [CACACA_negctrl_site131] | 9.06 ± 0.3 |
| TAAATTGAGTATATTACACACATATAAATATATTAT [CACACA_site4027] | 8.88 ± 0.3 |
| TGGATTCGTATATGTAGTACTATTTATATGTGATTT [XGTACX_site1581] | 8.91 ± 0.33 |
| ATATATATATATATATGTACATAATTAATAATTAGA [XGTACX_site5672] | 9.07 ± 0.56 |
| AAGTGTATATAAAAATGTACATATTTCGATTTAAAT [XGTACX_site4161] | 8.79 ± 0.39 |
| TAATAAATATATAATTGTACTTAAAAGAATATAAAA [XGTACX_site2928] | 8.36 ± 0.57 |
| AATATATACCAACATAAATATATATATATATATATA [TGCATGCA_negctrl_site334] | 9.55 ± 0.53 |
| TTAAAATTAAAATACGTACACACCTTATCTTTTTGG [CACACA_site7982] | 8.82 ± 0.55 |
| GAAAAGATTTAAAAATGTACAAAAGAAAAAAAAAAA [XGTACX_site6916] | 8.65 ± 0.64 |
| TCTTACAAGGAACTAATAAAATTGTAGTTTGTATTT [CACACA_negctrl_site386] | 8.51 ± 0.45 |
| CATATATTTTGAAACACACACATATAAAATATACAT [CACACA_site6664] | 9.26 ± 0.33 |
| TTATTATTTATTTTTTATTATTATTATTTTTTTTTA [XGTACX_negctrl_site76] | 8.38 ± 0.54 |
| AAATCTTAATAAAGTTGTACATAATTATGTTTAATA [XGTACX_site3348] | 8.55 ± 0.49 |
| AAGTATTTCCTAAAATGTACATATAAATAAGTATAT [XGTACX_site1282] | 8.64 ± 0.45 |
| TTTTTTACTATATCAATTACAAAACAAAAAAAAAAA [GTGCAC_negctrl_site683] | 8.12 ± 0.4 |
| TATCATTTGGTCTTTTACTTTTTCTGTTTTTTTTTT [CACACA_negctrl_site976] | 8.87 ± 0.58 |
